95 molecules from PubChem BioAssay AID1159614 (National Center for Advancing Translational Sciences (NCATS), 2016) can be followed below.

Each structure is given as a SMILES string. The campaign covered roughly 45,000 compounds. About 65 (0.1%) were called active. Calls come from the whole dose curve; as a rule, active = well fitted activation curve with a large enough effect; inconclusive = small, poorly fitted or top-dose-only effect; inactive = no such curve, though single readings can be large or run the other way. This is one part of the list.

Sequence of UniProt P54803 (P54803 whole entry, looked up): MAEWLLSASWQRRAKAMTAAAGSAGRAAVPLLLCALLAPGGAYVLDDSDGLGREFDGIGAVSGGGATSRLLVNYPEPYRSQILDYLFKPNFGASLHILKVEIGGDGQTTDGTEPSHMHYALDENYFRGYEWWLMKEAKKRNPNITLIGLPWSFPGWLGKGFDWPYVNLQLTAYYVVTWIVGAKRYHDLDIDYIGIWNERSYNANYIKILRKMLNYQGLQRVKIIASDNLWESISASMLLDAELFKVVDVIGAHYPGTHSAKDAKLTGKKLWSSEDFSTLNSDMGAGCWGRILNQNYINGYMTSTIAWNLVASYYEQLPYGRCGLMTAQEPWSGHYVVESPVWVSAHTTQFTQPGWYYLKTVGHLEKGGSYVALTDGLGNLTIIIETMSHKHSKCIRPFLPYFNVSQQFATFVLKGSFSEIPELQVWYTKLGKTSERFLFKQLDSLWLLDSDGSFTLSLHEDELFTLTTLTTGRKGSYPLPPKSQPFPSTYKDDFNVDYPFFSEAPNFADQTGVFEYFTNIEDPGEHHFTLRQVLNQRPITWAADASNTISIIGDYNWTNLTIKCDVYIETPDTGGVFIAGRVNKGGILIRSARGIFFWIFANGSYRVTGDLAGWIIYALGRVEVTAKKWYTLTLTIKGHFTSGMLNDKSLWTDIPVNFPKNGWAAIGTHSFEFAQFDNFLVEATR

The target of the assay is Galactocerebrosidase (Homo sapiens) (UniProt P54803). In words: A Novel Cell-Based Assay to Identify Small Molecules for B -Galactocerebrosidase. Note: 0% is about no effect; nearly all actives have a fitted effect of over 65% in size. The following applies: 145M-Twi-hGALC-G270D cells, HMU-beta-Gal fluorescence, 48 h; series mostly up to 57.5 µM; activation: at the top concentration. The essentials:
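qHTS, 1536-well; 145M-Twi-hGALC-G270D cells (WT line also made) in DMEM/F12 + 10% FBS; compound incubation on live cells; HMU-β-gal 0.1 mM final, pH 5.2, NaTC; carbonate stop; fluorescence increase = enhanced residual activity.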
In the case of `CCC(C(=O)NCc1ccc(OC)c(OC)c1)n1nc(C)c2c(C)n(-c3ccc(C)cc3)nc2c1=O` (stereo not given), the “activation” value was inactive: -4.29%.
For `Cc1ccc(C(=O)COC(=O)c2cccc(NC(=O)c3ccc(Cl)cc3Cl)c2)cc1`, the “activation” value is inactive: -14.2%.
With `Cc1ccc(C)c(NC(=O)Cn2cc(C(=O)c3cccs3)c3ccccc32)c1`, the “activation” value is inactive: -16%.
For the molecule `CCOc1ccccc1NC(=O)CCNS(=O)(=O)c1cccc2nonc12`, the “activation” value was inactive: 4.67%.
Take `CC(C)Oc1ccc(C(=O)NCC(c2ccc(N(C)C)cc2)N2CCCC2)cc1` (stereo not given): the “activation” value is inactive: -9.75%.
The result for `CCOc1ccccc1NC(=O)C1CCCN1S(=O)(=O)c1ccc2c(c1)C(C)(C)C(=O)N2C` (stereo not given) reads inactive: -18.9%.
In the case of `COc1cc(C(=O)Nc2ccc3c(c2)N(C2CCCC2)C(=O)c2ccccc2S3)cc(OC)c1OC`, the “activation” value was inactive: -8.93%.
Consider `CCc1ccccc1NC(=O)CN1CCCN(Cc2cc(C)ccc2C)S1(=O)=O`, for which the “activation” value is inactive: -13.3%.
The result for `CCCCNC(=O)c1cc(-c2ccc(OC)cc2)nc2n[nH]c(-c3cccc([N+](=O)[O-])c3)c12` reads inactive: -6.69%; that for `CCOC(=O)c1ccccc1NC(=O)CN1CCCN(Cc2cccc(Cl)c2)S1(=O)=O`, inactive: 4.78%; that for `CCc1ccc(NC(=O)CCNS(=O)(=O)c2ccc3c(c2)oc(=O)n3C)cc1`, inactive: -8.81%.
The result for `COc1ccc(Cl)cc1N(C)C(=O)c1cc2c(=O)oc3ccc(C)cc3c2s1` reads inactive: -21.4%; that for `COc1ccc(Cc2nc3c4cnn(-c5ccccc5F)c4ncn3n2)cc1`, inactive: -9.76%.
Under `COc1ccc(C(C)=O)cc1CSc1nc(NCCc2ccccc2)c2ccccc2n1` stands inactive: -2.31%; under `COc1ccc(C(=O)NNc2ncnc3c2cnn3-c2cccc(Cl)c2)cc1OC`, inactive: -14.7%.
For `CCN(CC)CCCNC(=O)c1nn(C)c2c1CSc1ccccc1-2`, the “activation” value is inactive: -4.94%.
The result for `COc1ccccc1-c1cc(C(=O)Nc2cc(OC)c(OC)c(OC)c2)no1` reads inactive: -9.99%.
Under `Cc1ccc(-n2nc(C)c3c(C(=O)NCCc4ccccc4)cc(C)nc32)cc1` stands inactive: -11%.
Regarding `Cc1ccc(CNC(=O)c2ccc3c(c2)nc2n3CCOC2)cc1`, the “activation” value is inactive: -17.9%.
As for `CCN(CC)c1ccc(C(=O)NCc2ccc3c(c2)CCN3C(=O)c2ccc(F)cc2)cc1`, the “activation” value is inactive: -7.78%.
Under `COc1ccc(C2NC(=O)N(C)C3=C2C(=O)N(c2cccc(C(=O)O)c2)C3)cc1` (stereo not given) stands inactive: 7.84%.
The result for `COc1ccc(Cl)cc1CNCCSc1nnnn1-c1ccccc1` reads inactive: -13.4%; that for `COc1ccc(NC(=O)CCc2nc3c(C)nn(-c4ccc(C)cc4)c3n(C)c2=O)cc1`, inactive: -6.77%.
Under `Cc1ccc(NC(=O)C2CCN(S(=O)(=O)c3c(C)noc3/C=C/c3cccs3)CC2)cc1F` stands inactive: -13.5%; under `CCCS(=O)(=O)c1c(S(=O)(=O)CCC)c2cc(CC)ccn2c1C(=O)c1ccc(Cl)cc1`, inactive: -15.1%.
Regarding `Cc1cccc(N(CC(=O)NCCSCc2cccc(Cl)c2)S(=O)(=O)c2ccccc2)c1C`, the “activation” value is inactive: -10.2%.
Under `Cc1cccc(Cn2cc(C(=O)Nc3cc(F)ccc3F)ccc2=O)c1` stands inactive: -11.9%; under `COc1ccc(-c2ccc(CCC(=O)O)n2-c2ccccc2O)cc1`, inactive: -4.02%.
The result for `COc1ccc(CNC(=O)CN2C(=O)CCn3nc(-c4ccccc4)cc32)c(OC)c1` reads inactive: -15.8%; that for `COc1ccc(S(=O)(=O)Nc2cc3c(C(=O)OC(C)C)c(C)oc3c3ccccc23)cc1`, inactive: -5.82%.
Under `CC(CCc1ccccc1)NC(=O)CSc1n[nH]c(-c2ccc(F)cc2)n1` (stereo not given) stands inactive: 2.97%.
Regarding `COc1ccc(-c2nn3c(=O)cc(CN4CCN(S(=O)(=O)c5ccc(C)cc5)CC4)nc3s2)cc1`, the “activation” value is inactive: -10.4%.
The result for `COc1ccc(C(=O)Nc2ccc(S(=O)(=O)N(Cc3ccccc3)c3ccccc3)cc2)cc1` reads inactive: -13.3%.
Regarding `Cc1cc(OCC(O)CN2CCN(c3cccc(Cl)c3)CC2)ccc1Cl` (stereo not given), the “activation” value was inactive: -7.51%.
The result for `Cc1oc2ncn(C)c(=O)c2c1C(=O)NCc1ccc(Cl)cc1` reads inactive: -8.17%; that for `COc1ccc(-c2nc(Cn3c(SCc4cccc(C(F)(F)F)c4)nc4cccnc43)c(C)o2)cc1OC`, inactive: -10.4%.
The result for `COc1ccc(C(=O)c2sc3nc(-c4ccc(F)cc4)ccc3c2N)cc1` reads inactive: -13.7%.
Under `CC1=C(C(=O)Nc2ccc(C)cc2C)C(c2ccc(O)cc2)n2nc(SCC(=O)c3ccc(C)cc3)nc2N1` (stereo not given) stands inactive: -8.39%; under `Cn1c(Nc2ccc(Cl)cc2)cc(=O)n(C)c1=O`, inactive: -19.2%; under `CCc1nnc2c(Nc3ccc(N(CC)CC)cc3C)nc3ccccc3n12`, inactive: 3.32%.
Take `Cc1ccc(S(=O)(=O)NCc2nc3cccnc3n2Cc2ccccc2Cl)c(C)c1`: the “activation” value was inactive: -7.25%.
On to `COc1cccc(NS(=O)(=O)c2ccc3c(c2)N(C)C(=O)CC(=O)N3C)c1`, for which the “activation” value was inactive: -10.4%.
The result for `COc1ccc(C)cc1NC(=O)c1cn(C)c(=O)c2cc(OC)c(OC)cc12` reads inactive: -10.6%; that for `Cc1cc(S(=O)(=O)Nc2ccc(C(=O)O)cc2)c(C)c(S(=O)(=O)c2ccc(Cl)cc2)c1`, inactive: -10%.
Turning to `CC(C)Cc1nn2c(=O)cc(COC(=O)c3ccccc3NC(=O)C3CCCCC3)nc2s1`, the “activation” value was inactive: -22.1%.
As for `CCCc1nn2c(=O)cc(COC(=O)c3ccc(NC(=O)C4CCCCC4)cc3)nc2s1`, the “activation” value is inactive: -18.9%.
The result for `CC(=O)c1ccccc1OCC(O)Cn1c(CO)nc2ccccc21` (stereo not given) reads inactive: -9.78%; that for `CC(=O)c1ccc(NC(=O)c2nc(-c3ccccc3)n(-c3ccccc3)n2)cc1`, inactive: -23%.
The result for `O=C(Nc1ccc(Br)cc1F)N1CC=C(c2c[nH]c3ccccc23)CC1` reads inactive: -14.8%; that for `CCc1ccccc1NC(=O)N1CC(C)Sc2ccccc21` (stereo not given), inactive: -2.8%.
As to `COc1ccccc1NC(=O)CN1C(=O)c2ccccc2Sc2ccc(C(=O)N3CCCC3)cc21`, the “activation” value is inactive: -6.71%.
Under `Cn1c(=O)c2sccc2n2c(CCCC(=O)NC3CCCCC3)nnc12` stands inactive: -14.6%.
The result for `Cn1c(=O)oc2cc(S(=O)(=O)CCC(=O)NCCc3ccc(Cl)cc3)ccc21` reads inactive: -26.6%; that for `CC(C)(C)OC(=O)N1CCC(c2c(C(=O)N3CCCCC3)cnn2-c2ccccc2Cl)CC1`, inactive: -4.69%.
For `CCn1cc(C(=O)O)c(=O)c2cc(F)c(N3CCNCC3)cc21`, the “activation” value is inactive: -0.723%.
Turning to `COc1ccccc1OCc1nc(C#N)c(NCc2ccc(C)cc2)o1`, the “activation” value was inactive: -13.1%.
As to `COc1ccc(-c2nn(-c3ccccc3)cc2C2NC(=O)NC(C)=C2C(=O)OC(C)C)cc1Cl` (stereo not given), the “activation” value was inactive: -25.8%.
The result for `Cc1ccc(Cl)cc1N1CCN(S(=O)(=O)c2cc(Br)cc3c2N(C(=O)C2CC2)CC3)CC1` reads inactive: 5.69%.
The result for `CC(C)c1ccc(NS(=O)(=O)c2ccc3[nH]cc(C(=O)NCCc4ccccc4)c(=O)c3c2)cc1` reads inactive: -25.6%; that for `CCOC(=O)c1cc(-c2ccc(F)cc2)n(CCC(=O)Nc2nc3ccc(OC)cc3s2)c1C`, inactive: -0.167%; that for `CCOC(=O)CC(NC(=O)CCc1c(C)nc2c(c1C)c(=O)n(C)c(=O)n2C)c1ccc(OCC)c(OC)c1` (stereo not given), inactive: 12.9%.
Under `CC(=O)Nc1ccc(NC(=O)C(Cc2ccccc2)NS(=O)(=O)c2ccc3c(c2)oc(=O)n3C)cc1` (stereo not given) stands inactive: -13.5%; under `CCOc1cc(-c2ccc(OC(=O)c3ccc(OC)cc3)c(OC)c2)cc(=O)c2c(C)oc(C)c12`, inactive: -15.9%.
Regarding `CCn1nc(C)c2c(-c3ccccc3)cc(=O)n(C(C)C(=O)NCCc3ccc(OC)c(OC)c3)c21` (stereo not given), the “activation” value was inactive: -16.2%.
The result for `Cc1ccc(-n2nc(C)c3c(C)cc(=O)n(CC(=O)NC(C)c4ccccc4)c32)cc1` (stereo not given) reads inactive: -11%; that for `O=S(=O)(c1ccc(Cl)cc1)c1nnn2c1nc(NCc1ccc3c(c1)OCO3)c1sccc12`, inactive: -9.33%.
Consider `Cc1ccc(N=C2NC(=O)CC(C(=O)Nc3cc(C(F)(F)F)ccc3Cl)S2)cc1` (stereo not given), for which the “activation” value is inactive: -3.02%.
The result for `Cc1ccc(N(CC(=O)Nc2cc(C)ccc2C)S(=O)(=O)c2c(C)noc2C)cc1` reads inactive: -10.1%.
As to `CCS(=O)(=O)c1ncc(Cl)c(C(=O)Nc2ccccc2)n1`, the “activation” value is inactive: -10.8%.
The result for `Cc1ccc(COC(=O)c2[nH]c3c(c2C)C(=O)CC(c2ccc(N(C)C)cc2)C3)cc1` (stereo not given) reads inactive: -18.2%.
For the molecule `CC(=O)c1ccc(NC(=O)c2ccc(-n3cnnc3)cc2)cc1`, the “activation” value is inactive: -12.8%.
The result for `CCC(=O)N1c2ccccc2CC1C(=O)NCc1ccc(N(C)C)cc1` (stereo not given) reads inactive: -5.03%; that for `CCCCN(CC)CCNC(=O)C1CCCN(c2ncnc3onc(C)c23)C1` (stereo not given), inactive: -5.12%.
Turning to `COc1ccc(-n2c(SCC(=O)c3ccccc3)nc3c([nH]c4ccccc43)c2=O)cc1`, the “activation” value was inactive: -8.16%.
The result for `COc1cc(Cl)c(NS(=O)(=O)c2cc(-c3cc(C)no3)ccc2OC)c(OC)c1` reads inactive: -14.7%.
Under `CCOc1ccccc1NC(=O)C1CCN(S(=O)(=O)c2ccc3c(c2)CCCN3C(C)=O)CC1` stands inactive: -11.9%; under `CC(=O)c1cccc(NS(=O)(=O)c2cc(-c3cnc(C4CC4)o3)ccc2C)c1`, inactive: -31.7%.
The result for `Cc1ccc(CSCCC(=O)NCc2ccc(F)cc2Cl)cc1` reads inactive: -4.52%; that for `O=c1oc2c3c(ccc2c2ccccc12)OCN(Cc1ccccc1Cl)C3`, inactive: -5.2%; that for `O=S(=O)(NCC(c1ccco1)S(=O)(=O)c1cccs1)c1ccc(Cl)cc1` (stereo not given), inactive: -21%.
In the case of `CN(Cc1ccccc1)c1ncnc2c1nnn2C`, the “activation” value was inactive: -17.7%.
Under `CCOc1ccc(C(=O)c2oc3ccccc3c2NC(=O)c2cc(-c3ccc(Cl)cc3)on2)cc1` stands inactive: 3.35%.
Under `COc1ccc(-c2nnc(SCC(=O)N(C)C3CCCCC3)o2)cc1OC` stands inactive: -17%; under `COC(=O)c1sccc1S(=O)(=O)N(CC(=O)Nc1ccccc1F)c1ccccc1`, inactive: -24.5%; under `Cc1ccc(NC(=O)Nc2ccccc2OCc2cc(=O)n3ccccc3n2)c(Cl)c1`, inactive: -2.25%.
Under `O=C(CCCCn1c(=O)c2ccccc2n(CC(=O)Nc2ccc(F)cc2F)c1=O)NCCc1ccccc1` stands inactive: -10.5%.
`COC(=O)c1c(NC(=O)Cc2coc3ccc(C(C)C)cc23)sc2c1CCC2`: the “activation” value was inactive: -2.09%.
The result for `Cc1ccc(C(=O)NCCc2ccc(S(N)(=O)=O)cc2)cc1-n1cnc2cccnc21` reads inactive: -5.04%.
The result for `Cc1cccc(C(=O)n2nc(-c3cccnc3)nc2NCc2ccccc2)c1` reads inactive: -18.9%; that for `CCn1cc(C(=O)NCCCOC)c(=O)c2cc(S(=O)(=O)N3CCCC3)ccc21`, inactive: -15.1%.
Under `Cc1nc(-c2ccccc2)sc1CCNS(=O)(=O)c1ccc(Br)cc1` stands inactive: -37.4%; under `CCNC(=O)Cc1ccc(NC(=O)N2CCCCc3ccccc32)cc1`, inactive: -15.2%; under `CCN(CC)c1nn2c(=O)c(C(=O)NCc3ccc(F)cc3)cnc2s1`, inactive: -13.8%.
As to `CCCn1c2ccccc2c2cnn(CC(=O)NCCc3ccc(OC)cc3OC)c(=O)c21`, the “activation” value is inactive: 0.398%.
The result for `COc1ccc(CC(=O)NCCc2csc(-c3ccc(Cl)cc3)n2)cc1` reads inactive: 5.83%.
